Measurements from the RNAGym collection of RNA variant scans (doi:10.1093/nar/gkz1192).
The source gives no read counts; variants with many changes may rest on few reads.

B1: CPEB3 Ribozyme (parent)
chain: UAACAGGGGGCCACAGCAGAAGCGUUCACGUCGCAGCCCCUGUCAGAUUCUGGUGAAUCUGCGAAUUCUGCUGUAUAUCUC

Variants of: B1
Experiment: self-cleavage, relative activity (ratio to wild type); higher = more cleavage; in vitro, sequencing
Method in brief: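 After error-prone PCR and barcoding, CPEB3 ribozyme mutant libraries were transcribed with T7 RNA polymerase at 37°C for 5 hours, then given 15 min with DNase I before an EDTA stop, and they cleaved during both steps. Reverse transcription with template switching preceded Illumina sequencing. Relative activity divides a variant's cleaved/total read fraction by the unmutated ribozyme's. At least 5 reads were required per variant, and three batches were averaged.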

Variant	self-cleavage
UAACAGGGGGCCACAGCUGAGGCGUUCACGUCGCAGCCCCUGUCAGAUUCUGGAGAAUCUGCGAGUUCUGCUGUAUAUCUC	0.16
UAACAGGGGGCCACAGCUGAAGCGUUCGCGUCGCAGCCCCUGUCAGAUUCUGGUGAAUCUGCGAAUUCUGCUAUAUAUCUC	0.42
UAACAGGGGGCCACAGCUGAAGCGUUCGCGUCGCAGCCCCUGUCGGAUUCUGGUGAAUCUGCGAAUUUUGCUGUAUAUCUC	0.19
UAACAGGGGGCCACAGCUGAAGCGUUCUCGUCGCAGCCCCUGUCAGAUUCCGGCGAAUCUGCGAACUCUGCUGUAUAUCUC	0.25
UAACAGGGGGCCACAGCUGAUGCGUUCACGACGCAGCCCCUGUCAGAUUCAGGUGAAUCUGCGAAUUCUGUUGUAUAUCUC	0.16
UAACAGGGGGCCACAGCUGUAGCGAUCACGUCGCAGCCCCUGACAGAUUCUGGUGAAUCUGCGAAUUCUGCCGUAUAUCUC	0.07
UAACAGGGGGCCACAGCUGAGGCGUUCACGUCGCAGCCCCUGUCAGAUUCUGGUGAAUCUGCGAAUUCUGCUGCAUAUCUC	0.25
UAACAGGGGGCCACAGCUGAAGCGUUCGCGUCGCGGCCCCUGUCAGAUUCUGGUGAAUCUGCGAAUUCUGCUGUAAAUCUC	0.64
UAACAGGGGGCCACAGCUGGAGCGUACACGUCGCAGCCCCUGUCAGAUUCAGGUGAAUCUGCGAAUUCUGCUGUAUAUCUC	0.19
UAACAGGGGGCCACAGCUGAGGCGUUCGCGUCGCAGCCCCUGUCUGAUUCUGGUGAAUCUGCGAAUUCUGCUGUAUAUCUC	0.05
UAACAGGGGGCCACAGCUGGAGCGUUCACGUCGCAGCCCCUGUCAGAUUCUGGUGAAUCUGCGAAUUCAGCUGUAUAUCUC	0.64
UAACAGGGGGCCACAGCUGAAGCGUUCGCGUCGCAGCCCCUGUCAGAUUCUGGUGAGUCCGCGAAUUCUGCUGUAUAUCUC	0.13
UAACAGGGGGCCACAGCUGUAGCGUUCACGUCGCAGCCCCUGUCAGAUUCUGGCGAAUCUGCGAAUUCUGCUGUAUAUCUC	0.18
UAACAGGGGGCCACAGCUGAGGCGCUCACGUCGCAGCCCCCGUCAAAUUCUGGUGAAUCCGCGAAUUCUGCUGUAUAUCUC	0.01
UAACAGGGGGCCACAGCUGAGGCGUUCACGUCGCAGCCCCUGUCAGAUUCUGGUGAAUCAGCGAAUUCUGCUGUAUAUCUC	0.08
UAACAGGGGGCCACAGCUGAAGCGUUCACGUCGCGGCCCCUGUCAGAUUCUGGUGAAUCUGCGAAUUCAGCUGUAUAUCUC	1.2
UAACAGGGGGCCACAGCUGAAGCGUUCUCGUCGCAGCCCCUGUCGGAUUCUGGUGAAUCCGCGAAUUCAGCUGUAUAUCCC	0.97
UAACAGGGGGCCACAGCUGGAGCGCUCACGUCGCAGCCCCUGUCAGAUUCUGGUGAAUCUGCGAAAACUGCCGUUUAUCUC	0.07
UAACAGGGGGCCACAGCUGAGGCGUUCACGCCGCAGCCCCAGUCAGAUGCUGUUGAAUCGGCGAAUUCUGCUGUAUAUCUC	0.15
UAACAGGGGGCCACAGCUGGAGCGUUCACGUCGCAGCCCCCGUCAGAUUCUGAUGAAUCUGCGAAUUCUGCUGUAUAUCUC	0.24
UAACAGGGGGCCACAGCUGAGGCGUUCACGUCGCAGCCCCUGUCAGAUUCUGGUGAAUCUGCGAAUCCUGCUGUAUAUCUC	0.16
UAACAGGGGGCCACAGCUGAGGCGUUCACGUCGCAGCCCCUGUCAGAUUCUGGUGAAUCUGCGAAUACUGCUGUAUAUCUC	0.19
UAACAGGGGGCCACAGCUGAAGCGUUCACGUCGCGGCCCCUGUCAGAUUCUGGUGGAUCUGCGAAUUCUGCUGUAAAUCUC	0.61

Variant	self-cleavage
UAACAGGGGGCCACAGCUGUAGCGUUCACGUCGCAGCCCCUGUCAUAUUCUGGUGAAUCUGGGAAUUCUGCUGUAUAUCUC	0.15
UAACAGGGGGCCACAGCUGGAGCGUUCACGUCGCAGCCCCCGUCAGAUUCUGGUGAAUCUGCGAAUUCUGCCGUAAAUCUC	0.45
UAACAGGGGGCCACAGCUGAAGCGUUCUCAUCGCAGCCCCUGUCAGACUCUGGUGAAUCUGCGAAUUCUGCUGUAUAUCUC	0.12
UAACAGGGGGCCACAGCUGAAGCGUUCGCGUCGCAGCCCCUGUCAGAUUCUGGUGAAUCUGCGUAUUCUGCAGUAUAUCCC	0.15
UAACAGGGGGCCACAGCUGAGGCGUUCACGUCGCAGCCCCUGUCAGAUUCUGGUGAAUCUGCGAAUUAUGCUGUAUAUCUC	0.06
UAACAGGGGGCCACAGCUGGAGCGUUCACGUCGCAGCCCCCGUCAGAUUCUGGUGAAUCUGCGAAUUCUGCUGUAUUUCUC	0.12
UAACAGGGGGCCACAGCUGAAGCGUUCACGUCGCGGCCCCUGUCAGAUUCUGGUGGAUCAGCGAAUUCUGCUGUAUACCUC	0.37
UAACAGGGGGCCACAGCUGAAGCGUUCACGUCGCGGCCCCCGUCUGAUUCUGGUGAAUCUGCGAAUUCAGCUGUAUAUCUC	1.24
UAACAGGGGGCCACAGCUGGAGCGUUCACGUCGCAGCCCCUGUCAGAUUCUGGUGAAUCCGCGAAUUCUGCUGUAUAUCUC	0.32
UAACAGGGGGCCACAGCUGAAGCGUUCUCGUCGCAACCCCUGUCAGAUUCUGGUGAAUCUGCGUGUUCUGCUGUAUAUCUC	0.06
UAACAGGGGGCCACAGCUGAAGCGUUCGCGUCGCAGCCCCUGCCUGAUUCUGGUGAAUCUGCGGAUUCUGCGGUAUAUCUC	0.05
UAACAGGGGGCCACAGCUGAAGCGUUCUCGUCGCAGCCCCUGCCAGGUUCUGGUGAAUCUGCGAAUACUGCCGUUUAUCUC	0.16
UAACAGGGGGCCACAGCUGAGGCGUUCACGUCGCAGCCCCAGUCGGAUUCUGGUGAAUCUGCGAAUUCUGCUGUAUAUCUC	0.29
UAACAGGGGGCCACAGCUGAAGCGUUCGCGUCGCGGCCCCUGUCCGAUUCUGGUGAAUCUGCGAGUUCUGCUGUAUAUCCC	0.21
UAACAGGGGGCCACAGCUGAAGCGUUCGCGUCGCAGCCCCUGUCAGAUUCUGGUGAAUCUGCGAGCUCUGCUGUAUAUCUC	0.13
UAACAGGGGGCCACAGCUGAAGCGUUCGCGUCGCAGCUCCUGUCAGAUUCUGGUGAAUCUGCGAAUCCUGCUGUAUAUCCC	0.09
UAACAGGGGGCCACAGCUGAGGCGUUCACGUCGCAGCCCCUGUCAGACUCUGGUGAAUCUGCGAAUUCUGCUGUAUAUCUC	0.1
UAACAGGGGGCCACAGCUGAAGCGUUCGCGACGCAGCCUCUGUCAGAUUCUGUUGAAUCUGCGAAUUCUGCUGUAUAUCUC	0.07
UAACAGGGGGCCACAGCUGAAGCGUUCACGUCGCGGCCCCUGUCAGAUUCUGGUGUAUCUGCGAAUUCUGCUGUGUAUCUC	0.28
UAACAGGGGGCCACAGCUGAAGCGUUCGCGUCGCAGCCCCUGUCAGAUUCUGGUGAACCUGCGAAUUCUGCUGUAUAUCUC	0.07
UAACAGGGGGCCACAGCUGAGGCGUUCACGUCGCAGCCCCUGACAGAUUCUGGUGAAUCUGCGAAUUCUGCUGUAUAUCUC	0.22
UAACAGGGGGCCACAGCUGAAGCGUUCUCGUCGCAGCCCCUGUCAGAUUCUGGUGUAUCUGCGAAUUCUGCUGUAUAUCAC	0.2
UAACAGGGGGCCACAGCUGAGGCGUUCACGUCGCAGCCCCUGUCAGAUUCUGGUGGAUCUGCGAAUCCUGCAGUAUAUCUC	0.05

Variant	self-cleavage
UAACAGGGGGCCACAGCUGAAGCGUUCACGUCGCGGCCCCUGUCAGAUUCUGGUGAAUCUGCGGGUUCUGCUGGAUAUCUC	0.19
UAACAGGGGGCCACAGCUGUAGCGUUCACGUCGCAGCCCCUGUCAGAUCCUGGUGAAUCCGCGAAUUCUGCUGUAUAUCAC	0.1
UAACAGGGGGCCACAGCUGGAGCGUUCACGUCGCAGCCCCUGUCAGAUUCUGGUGAAUCUGCGAAUACUGCUGUAUAUCUC	0.31
UAACAGGGGGCCACAGCUGGAGCGUUCACGGCGCAGCCCCUGUCAGAUUCUGGUGAAUCCGCGAAUUCUGCUGUAUAUCUC	0.19
UAACAGGGGGCCACAGCUGAAGCGUUCUCGUCGCAGCCCCUGUCAGAUUCUGGUGAAUCUGCGAAUUCUGCUGUAGAUCUC	0.43
UAACAGGGGGCCACAGCUGAAGCGUUCGCGUCACAGCCCCUGUCAGAUUCCGGUGAAUCAGCGAAUUCUGCUGUAUAUCUC	0.19
UAACAGGGGGCCACAGCUGAUGCGCUCACGUCGCAGCCCCUGUCAGAUUCUGGUGAAUCUGCGAAUUCUGCUGUAUAUCUC	0.1
UAACAGGGGGCCACAGCUGAGGCGUUCACAUCGCAGCCCCUGUCAGAUUCUGGUGAAUCUGCGAAUUCUGCUGUAUAUCUC	0.05
UAACAGGGGGCCACAGCUGAAGCGUUCUCGCCGCAGCCCCUGUCAGGUUCUGGUAAAUCUGCGAAUUCUGCCGUAUAUCUC	0.09
UAACAGGGGGCCACAGCUGAGGCGUUCACGUCGCGGCCCCUGUCAGAUUCUGGCGAAUCUGCGAAUUCUGCUGCAUACCUC	0.81
UAACAGGGGGCCACAGCUGAAGCGUUCACGUCGCGGCCCCUGUCAGAUUCUGGUGAAUCCGCGAAUUCUGCUGUAUAUCUC	0.24
UAACAGGGGGCCACAGCUGAAGCGUUCUCGUCGCAGCCCCUGUCAGAUUCUGGUGAAUCUGCGAAUUCCGCUGUGUAUCUC	0.21
UAACAGGGGGCCACAGCUGAAGCGUUCCCGUCGCAGCCCCUGUCAGAUUCUGGUGAAUCUGCGUAUUCUGCUGUAUAUCUC	0.14
UAACAGGGGGCCACAGCUGAUGCGUUCACGUCGCAGCCCCUGUCAGAUUCUGGUGAAUCUGCGAAUACUGCUGUAUAUCUC	0.2
UAACAGGGGGCCACAGCUGGAGCGUUCACGUCGCAGCCCCUGUCAGAUUCUGGUGAAUCCGCGAAUUCUGCUGUACACCUC	0.46
UAACAGGGGGCCACAGCUGAAGCGUUCACGUCGCGGCCCACGUCAGAUUCUGGUGAAUCUGCGAAUUCUGCUGUAUAUCUC	0.3
UAACAGGGGGCCACAGCUGAAGCGUUCUCGUCGCUGCCCCUGUCAGAUUCUGGUGAAUCUGCGAAUUCAGCUGUAUAUCUC	0.39
UAACAGGGGGCCACAGCUGAGGCGUUCACGUCGCUGCCCGUGCCAGAUUCUGGUGAAUCUGCGAAUUCUGCUGUAUAUCUC	0.05
UAACAGGGGGCCACAGCUGAAGCGUUCACGUCGCGGCCCCUGUCAGAUUCUGGUGAAUCUGCGAAUUCUGCUGUAUACCUC	0.25
UAACAGGGGGCCACAGCUGAGGCGUUCACGUCGCAGCCCCCGUCAGAUUCUGGCGAAUCAGCGAAUUCUGCUGUUUAUCUC	0.03
UAACAGGGGGCCACAGCUGAGGCGUUCACGUCGCAGCCCCUGUCAGAUUCCGGUGAAUCCGCGAAUUCUGCUGUAUAUCUC	0.2
UAACAGGGGGCCACAGCUGUAGCGUCCGCGUCGCAGCCCCUGUCAGAUUCUGGUGAAUCCGCGAAUUCUGCUGUAUAUCUC	0.04
